Twelve molecules from publication PMC3846719 can be followed below.

Sequences of proteins named here, by UniProt entry; tags and fusion partners are left off. A change or cut given only in a name is not applied to a line headed by its entry. Residues count along the entry.
UniProt P27801: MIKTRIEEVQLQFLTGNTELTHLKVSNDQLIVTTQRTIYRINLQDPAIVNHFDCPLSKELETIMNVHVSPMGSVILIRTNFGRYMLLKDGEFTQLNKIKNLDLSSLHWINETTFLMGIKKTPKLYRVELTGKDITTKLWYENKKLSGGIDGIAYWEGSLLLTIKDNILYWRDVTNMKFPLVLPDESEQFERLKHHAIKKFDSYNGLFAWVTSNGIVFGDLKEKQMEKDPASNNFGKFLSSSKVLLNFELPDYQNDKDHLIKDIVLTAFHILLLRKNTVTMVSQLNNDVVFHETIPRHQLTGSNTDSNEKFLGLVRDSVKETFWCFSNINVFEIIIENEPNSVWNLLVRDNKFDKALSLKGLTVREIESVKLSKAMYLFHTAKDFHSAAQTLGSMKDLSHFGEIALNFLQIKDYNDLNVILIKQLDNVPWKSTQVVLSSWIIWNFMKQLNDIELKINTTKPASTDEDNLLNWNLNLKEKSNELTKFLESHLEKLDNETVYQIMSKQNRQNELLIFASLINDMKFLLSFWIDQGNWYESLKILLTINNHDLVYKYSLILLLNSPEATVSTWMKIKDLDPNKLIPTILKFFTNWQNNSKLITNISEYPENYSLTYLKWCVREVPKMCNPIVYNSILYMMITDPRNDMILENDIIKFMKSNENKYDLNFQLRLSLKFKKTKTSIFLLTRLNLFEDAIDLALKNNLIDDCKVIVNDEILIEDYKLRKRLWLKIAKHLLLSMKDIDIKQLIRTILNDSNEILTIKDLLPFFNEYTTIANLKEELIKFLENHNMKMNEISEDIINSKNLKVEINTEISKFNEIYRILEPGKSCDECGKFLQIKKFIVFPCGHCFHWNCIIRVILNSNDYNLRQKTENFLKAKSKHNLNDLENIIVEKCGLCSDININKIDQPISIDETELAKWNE
UniProt P12868: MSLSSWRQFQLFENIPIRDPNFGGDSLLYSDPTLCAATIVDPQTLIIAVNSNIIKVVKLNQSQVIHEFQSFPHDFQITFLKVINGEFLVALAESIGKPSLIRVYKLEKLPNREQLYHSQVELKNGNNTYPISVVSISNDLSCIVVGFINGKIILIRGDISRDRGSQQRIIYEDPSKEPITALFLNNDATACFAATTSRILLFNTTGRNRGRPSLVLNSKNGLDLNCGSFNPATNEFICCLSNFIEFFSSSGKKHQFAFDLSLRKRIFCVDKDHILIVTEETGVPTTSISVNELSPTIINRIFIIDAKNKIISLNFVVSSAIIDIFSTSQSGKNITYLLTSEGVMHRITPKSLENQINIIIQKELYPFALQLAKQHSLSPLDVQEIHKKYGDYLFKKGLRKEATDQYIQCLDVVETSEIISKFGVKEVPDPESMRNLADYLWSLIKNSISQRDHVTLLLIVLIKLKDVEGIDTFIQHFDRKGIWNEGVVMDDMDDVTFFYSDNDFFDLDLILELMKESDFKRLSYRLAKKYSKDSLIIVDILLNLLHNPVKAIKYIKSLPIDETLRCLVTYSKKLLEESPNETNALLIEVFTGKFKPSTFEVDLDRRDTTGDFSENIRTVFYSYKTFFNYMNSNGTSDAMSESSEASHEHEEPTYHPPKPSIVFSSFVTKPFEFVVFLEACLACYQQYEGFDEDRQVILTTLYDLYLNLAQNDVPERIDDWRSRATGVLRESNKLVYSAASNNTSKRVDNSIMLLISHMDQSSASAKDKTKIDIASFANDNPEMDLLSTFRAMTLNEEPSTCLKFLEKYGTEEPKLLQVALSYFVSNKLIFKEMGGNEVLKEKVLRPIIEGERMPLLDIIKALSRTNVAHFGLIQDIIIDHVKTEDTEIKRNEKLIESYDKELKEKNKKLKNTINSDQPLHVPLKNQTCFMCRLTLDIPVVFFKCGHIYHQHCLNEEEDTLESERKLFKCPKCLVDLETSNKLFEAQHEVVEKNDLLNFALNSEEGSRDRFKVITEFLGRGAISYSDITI
UniProt Q03308: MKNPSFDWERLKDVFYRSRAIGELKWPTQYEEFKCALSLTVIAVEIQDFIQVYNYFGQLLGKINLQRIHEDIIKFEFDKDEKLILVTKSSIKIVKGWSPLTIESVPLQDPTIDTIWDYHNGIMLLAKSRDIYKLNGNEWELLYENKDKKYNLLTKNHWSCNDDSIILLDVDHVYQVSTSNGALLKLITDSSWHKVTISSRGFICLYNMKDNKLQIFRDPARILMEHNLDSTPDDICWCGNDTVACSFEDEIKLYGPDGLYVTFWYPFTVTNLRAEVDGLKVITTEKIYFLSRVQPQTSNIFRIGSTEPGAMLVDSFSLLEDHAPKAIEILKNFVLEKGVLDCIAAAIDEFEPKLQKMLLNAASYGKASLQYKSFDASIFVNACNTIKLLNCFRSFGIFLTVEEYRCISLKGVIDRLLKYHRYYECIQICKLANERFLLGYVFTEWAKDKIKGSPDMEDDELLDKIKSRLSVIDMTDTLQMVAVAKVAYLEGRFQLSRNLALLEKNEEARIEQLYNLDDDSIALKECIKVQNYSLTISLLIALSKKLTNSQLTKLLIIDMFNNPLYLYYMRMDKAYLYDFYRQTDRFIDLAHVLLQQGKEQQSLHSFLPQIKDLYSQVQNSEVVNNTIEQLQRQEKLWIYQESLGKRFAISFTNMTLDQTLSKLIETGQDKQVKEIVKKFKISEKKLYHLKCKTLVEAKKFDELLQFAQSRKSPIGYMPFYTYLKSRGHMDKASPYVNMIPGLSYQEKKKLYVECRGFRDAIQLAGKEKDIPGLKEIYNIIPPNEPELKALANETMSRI
UniProt P38959: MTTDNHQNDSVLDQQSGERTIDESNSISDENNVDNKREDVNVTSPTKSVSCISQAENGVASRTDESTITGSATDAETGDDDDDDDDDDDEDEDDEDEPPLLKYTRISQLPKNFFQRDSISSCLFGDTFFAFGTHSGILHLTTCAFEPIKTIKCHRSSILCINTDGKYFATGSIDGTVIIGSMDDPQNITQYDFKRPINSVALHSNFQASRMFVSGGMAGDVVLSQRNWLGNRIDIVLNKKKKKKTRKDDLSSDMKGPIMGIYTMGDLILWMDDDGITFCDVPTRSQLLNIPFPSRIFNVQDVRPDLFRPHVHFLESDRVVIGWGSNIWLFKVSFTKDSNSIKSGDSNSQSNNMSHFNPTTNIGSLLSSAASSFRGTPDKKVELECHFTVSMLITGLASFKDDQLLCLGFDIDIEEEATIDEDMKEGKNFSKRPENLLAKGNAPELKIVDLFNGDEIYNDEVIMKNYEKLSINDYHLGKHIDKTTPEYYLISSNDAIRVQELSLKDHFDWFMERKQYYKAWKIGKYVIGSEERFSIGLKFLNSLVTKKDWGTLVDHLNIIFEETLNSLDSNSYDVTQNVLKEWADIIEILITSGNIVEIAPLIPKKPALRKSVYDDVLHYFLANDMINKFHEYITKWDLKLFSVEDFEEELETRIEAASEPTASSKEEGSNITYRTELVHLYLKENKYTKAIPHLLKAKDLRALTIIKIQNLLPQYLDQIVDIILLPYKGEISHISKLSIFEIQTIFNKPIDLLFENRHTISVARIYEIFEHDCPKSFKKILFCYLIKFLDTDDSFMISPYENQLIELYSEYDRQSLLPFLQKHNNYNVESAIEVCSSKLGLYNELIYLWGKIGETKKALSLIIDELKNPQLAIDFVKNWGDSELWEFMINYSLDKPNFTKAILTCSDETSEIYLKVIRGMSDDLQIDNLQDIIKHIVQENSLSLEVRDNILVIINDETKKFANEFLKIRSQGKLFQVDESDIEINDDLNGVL
UniProt P20795, residues 440-691: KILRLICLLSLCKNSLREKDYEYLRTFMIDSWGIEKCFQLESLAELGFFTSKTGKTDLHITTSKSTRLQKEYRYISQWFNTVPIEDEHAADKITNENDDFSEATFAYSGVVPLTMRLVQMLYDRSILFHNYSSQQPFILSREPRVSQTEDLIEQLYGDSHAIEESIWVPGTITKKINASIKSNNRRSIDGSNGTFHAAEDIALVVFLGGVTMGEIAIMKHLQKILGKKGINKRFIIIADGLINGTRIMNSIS
UniProt Q07468: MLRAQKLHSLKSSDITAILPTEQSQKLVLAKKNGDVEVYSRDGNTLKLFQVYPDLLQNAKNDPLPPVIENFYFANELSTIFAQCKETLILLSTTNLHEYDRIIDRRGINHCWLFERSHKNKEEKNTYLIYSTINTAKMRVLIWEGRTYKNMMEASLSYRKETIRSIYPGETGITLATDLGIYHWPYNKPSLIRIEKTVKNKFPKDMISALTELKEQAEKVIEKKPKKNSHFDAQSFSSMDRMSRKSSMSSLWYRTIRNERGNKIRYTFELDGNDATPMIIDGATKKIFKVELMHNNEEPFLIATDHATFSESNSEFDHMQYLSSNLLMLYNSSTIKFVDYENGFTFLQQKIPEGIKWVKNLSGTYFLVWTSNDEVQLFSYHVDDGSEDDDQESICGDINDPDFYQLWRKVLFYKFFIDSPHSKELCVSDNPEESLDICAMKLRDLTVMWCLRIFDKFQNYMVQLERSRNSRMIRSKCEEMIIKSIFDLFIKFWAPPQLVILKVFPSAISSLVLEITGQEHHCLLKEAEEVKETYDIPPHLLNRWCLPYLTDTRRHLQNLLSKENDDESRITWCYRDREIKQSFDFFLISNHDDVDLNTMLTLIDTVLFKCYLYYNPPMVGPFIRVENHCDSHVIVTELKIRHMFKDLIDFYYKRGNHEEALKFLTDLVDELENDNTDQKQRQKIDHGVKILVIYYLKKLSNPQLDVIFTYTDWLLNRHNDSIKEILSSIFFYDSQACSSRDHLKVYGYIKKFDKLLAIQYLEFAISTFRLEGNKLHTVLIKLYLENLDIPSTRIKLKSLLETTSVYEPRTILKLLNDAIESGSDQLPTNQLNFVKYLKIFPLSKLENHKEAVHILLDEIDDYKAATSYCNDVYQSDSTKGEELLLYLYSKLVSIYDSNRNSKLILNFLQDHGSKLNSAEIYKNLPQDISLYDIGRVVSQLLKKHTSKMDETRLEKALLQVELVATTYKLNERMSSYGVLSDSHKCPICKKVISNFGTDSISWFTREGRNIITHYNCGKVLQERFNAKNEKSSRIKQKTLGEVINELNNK

Results are given in words; binding and its absence hold for the method and conditions named. Binding seen in cells or lysates may run through a third protein. Some results given as binding are weak or reduced against the parent protein; the word gives no strength.

Experiment [1] deals with Vps18 (S. cerevisiae) (UniProt P27801). As to the kind of experiment: pull-down; three or four subunits co-translated in LTE (20 nM plasmid mixture in all), one of them GFP-tagged; subcomplex isolated on the anti-GFP matrix; SDS-PAGE, fluorescence scan.
Experiment [2] has as its target Vps11 (S. cerevisiae) (UniProt P12868). The description is as above.
The target is the same in experiment [3]. As to the kind of experiment: pull-down; one EGFP-tagged bait subunit and one untagged prey subunit co-translated (10 nM plasmids, 100 µl LTE, 27 °C, 2.5 h) with BODIPY-Lys-tRNA; GFP-Cap (anti-GFP) beads 15 min; washed with 50 mM NaHPO4 pH 8, 300 mM NaCl, 0.1% Triton; SDS-PAGE, fluorescence scan.
For experiment [4] the target is unchanged. As to the kind of experiment: pull-down; fragments of subunits from linear PCR templates co-translated in LTE with single EGFP-tagged bait subunits; precipitated on the anti-GFP matrix; SDS-PAGE, fluorescence scan.
The target in experiment [5] is Vps18 (S. cerevisiae) (UniProt P27801). Described as above.
The target of experiment [6] is Vps16 (S. cerevisiae) (UniProt Q03308). Described as above.
Experiment [7] has as its target Vps41 (S. cerevisiae) (UniProt P38959). Description: pull-down; all six HOPS subunits co-translated in LTE, Vps41 N-terminally tagged with GFP, Vps39 as 76-1049; isolated on the anti-GFP matrix; SDS-PAGE, fluorescence scan.
Experiment [8] shares this target. Description: pull-down; HOPS subunits expressed one by one in LTE and the lysates mixed; complex isolated by affinity purification; lower yield than co-expression.
Experiment [9] concerns the target Vps16 (S. cerevisiae) (UniProt Q03308). As to the kind of experiment: pull-down; three or four subunits co-translated in LTE (20 nM plasmid mixture in all), one of them GFP-tagged; subcomplex isolated on the anti-GFP matrix; SDS-PAGE, fluorescence scan.
The target is the same in experiment [10]. As to the kind of experiment: pull-down; one EGFP-tagged bait subunit and one untagged prey subunit co-translated (10 nM plasmids, 100 µl LTE, 27 °C, 2.5 h) with BODIPY-Lys-tRNA; GFP-Cap (anti-GFP) beads 15 min; washed with 50 mM NaHPO4 pH 8, 300 mM NaCl, 0.1% Triton; SDS-PAGE, fluorescence scan.

On to Vps11 (from UniProt P12868 1-1029), for which the binding entry with Vps18 (S. cerevisiae) [1] is given as “binds”.

As for Vps16 (from UniProt Q03308 1-798), the binding result in the experiment with Vps11 (S. cerevisiae) [2], in the experiment with Vps18 (S. cerevisiae) [1] and in the experiment with Vps11 (S. cerevisiae) [3] was “binds” in each case. For “Vps16(479-798) (from UniProt Q03308 479-798) (domain or fragment)”, the binding result with Vps11 (S. cerevisiae) [4] and with Vps18 (S. cerevisiae) [5] was “binds” throughout. With Vps18 (from UniProt P27801 1-918), the binding entry with Vps11 (S. cerevisiae) [3] was “binds”. For the molecule “Vps18(733-918) (from UniProt P27801 733-918) (domain or fragment)”, the binding entry with Vps11 (S. cerevisiae) [4] and with Vps16 (S. cerevisiae) [6] was “binds” each time.

For the molecule “Vps33(440-691) (from UniProt P20795 440-691) (domain or fragment)”, the binding result in the experiment with Vps16 (S. cerevisiae) [6] is “binds”.

Take Vps39 (from UniProt Q07468 1-1049): in the experiment with Vps11 (S. cerevisiae) [3], the binding entry is “binds”. “Vps39(618-1049) (from UniProt Q07468 618-1049) (domain or fragment)”: in the experiment with Vps11 (S. cerevisiae) [4], the binding result is “binds”. Regarding “truncated version of Vps39 (76-1049AA) (from UniProt Q07468 76-1049) (domain or fragment)”, the binding result with Vps41 (S. cerevisiae) [7] and with Vps41 (S. cerevisiae) [8] was “binds” each time.

B1: Vps8 (protein, UniProt P39702 1-1274)
chain: MEQNGLDHDSRSSIDTTINDTQKTFLEFRSYTQLSEKLASSSSYTAPPLNEDGPKGVASAVSQGSESVVSWTTLTHVYSILGAYGGPTCLYPTATYFLMGTSKGCVLIFNYNEHLQTILVPTLSEDPSIHSIRSPVKSIVICSDGTHVAASYETGNICIWNLNVGYRVKPTSEPTNGMTPTPALPAVLHIDDHVNKEITGLDFFGARHTALIVSDRTGKVSLYNGYRRGFWQLVYNSKKILDVNSSKEKLIRSKLSPLISREKISTNLLSVLTTTHFALILLSPHVSLMFQETVEPSVQNSLVVNSSISWTQNCSRVAYSVNNKISVISISSSDFNVQSASHSPEFAESILSIQWIDQLLLGVLTISHQFLVLHPQHDFKILLRLDFLIHDLMIPPNKYFVISRRSFYLLTNYSFKIGKFVSWSDITLRHILKGDYLGALEFIESLLQPYCPLANLLKLDNNTEERTKQLMEPFYNLSLAALRFLIKKDNADYNRVYQLLMVVVRVLQQSSKKLDSIPSLDVFLEQGLEFFELKDNAVYFEVVANIVAQGSVTSISPVLFRSIIDYYAKEENLKVIEDLIIMLNPTTLDVDLAVKLCQKYNLFDLLIYIWNKIFDDYQTPVVDLIYRISNQSEKCVIFNGPQVPPETTIFDYVTYILTGRQYPQNLSISPSDKCSKIQRELSAFIFSGFSIKWPSNSNHKLYICENPEEEPAFPYFHLLLKSNPSRFLAMLNEVFEASLFNDDNDMVASVGEAELVSRQYVIDLLLDAMKDTGNSDNIRVLVAIFIATSISKYPQFIKVSNQALDCVVNTICSSRVQGIYEISQIALESLLPYYHSRTTENFILELKEKNFNKVLFHIYKSENKYASALSLILETKDIEKEYNTDIVSITDYILKKCPPGSLECGKVTEVIETNFDLLLSRIGIEKCVTIFSDFDYNLHQEILEVKNEETQQKYLDKLFSTPNINNKVDKRLRNLHIELNCKYKSKREMILWLNGTVLSNAESLQILDLLNQDSNFEAAAIIHERLESFNLAVRDLLSFIEQCLNEGKTNISTLLESLRRAFDDCNSAGTEKKSCWILLITFLITLYGKYPSHDERKDLCNKLLQEAFLGLVRSKSSSQKDSGGEFWEIMSSVLEHQDVILMKVQDLKQLLLNVFNTYKLERSLSELIQKIIEDSSQDLVQQYRKFLSEGWSIHTDDCEICGKKIWGAGLDPLLFLAWENVQRHQDMISVDLKTPLVIFKCHHGFHQTCLENLAQKPDEYSCLICQTESNPKIV
modifications: BODIPY-labelled lysines (BODIPY-Lys-tRNA in the translation)
As for B1, the binding entry with Vps16 (S. cerevisiae) [9], with Vps11 (S. cerevisiae) [3] and with Vps16 (S. cerevisiae) [10] was “binds” each time.

B2: Vps8(950-1274) (domain or fragment, UniProt P39702 950-1274)
chain: TQQKYLDKLFSTPNINNKVDKRLRNLHIELNCKYKSKREMILWLNGTVLSNAESLQILDLLNQDSNFEAAAIIHERLESFNLAVRDLLSFIEQCLNEGKTNISTLLESLRRAFDDCNSAGTEKKSCWILLITFLITLYGKYPSHDERKDLCNKLLQEAFLGLVRSKSSSQKDSGGEFWEIMSSVLEHQDVILMKVQDLKQLLLNVFNTYKLERSLSELIQKIIEDSSQDLVQQYRKFLSEGWSIHTDDCEICGKKIWGAGLDPLLFLAWENVQRHQDMISVDLKTPLVIFKCHHGFHQTCLENLAQKPDEYSCLICQTESNPKIV
modifications: BODIPY-labelled lysines (BODIPY-Lys-tRNA in the translation)
For the molecule B2, the binding result with Vps16 (S. cerevisiae) [6] and with Vps18 (S. cerevisiae) [5] was “binds” each time.

B3: Vps3 (protein, UniProt P23643 1-1011)
chain: MVKKKTNNDKGKEVKENEGKLDIDSESSPHERENDKKKTEDDSLRATESEETNTHNANPNETVRADKFSQEESRPIEDSPHTDKNTAQESCQPSSAEDNVINTDITSLNEKTSTNDEQEKGLPLKISEGPFTISTLLDNVPSDLIYTCCEAYENHIFLGTTTGDLLHYFELERGNYMLVSQTKFDAESNSKIDKILLLPKVEGALILCDNELVLFILPEFAPRPNTTRLKGISDVVICNFSRSSKAYRIYAFHAEGVRLLKISADSLVLTKAFNFKLIDKACAHEETLMVSKLNSYELINLKSSQVIPLFRISETDEDLEPIITSFNEQSEFLVCSGGGSYDSGAMALVVNHHGDIIKGTIVLKNYPRNVIVEFPYIIAESAFQSVDIYSALPSEKSQLLQSITTSGSDLKISKSDNVFTNTNNSEEFKEKIFNKLRLEPLTHSDNKFRIERERAFVEESYEEKTSLIVYNNLGIHLLVPTPMVLRFTSCEESEIDNIEDQLKKLAKKDLTKFEHIEAKYLMSLLLFLMTLHYDHIEDEVMKKWCDFSDKVDIRILFYMFGWKVYSEIWCFHGLINIVERLKSLKLTNKCENILKMLLMMKNELKKKNKTGLLTNDFDDIMKTIDITLFKLRLEKKETITVDMFERESYDEIIREINLHDDKLPRIELLIEIYKEKGEYLKALNLLREAGDYISLVSFIEENLKKLPEDYIKERIADDLLLTLKQGDENTEECAIKKVLKILDMACINKNDFLNKIPAEETSLKVSFIEQLGVQNSNDSKFLFNYYLAKLREIINQSNIWSILGDFIKEYKDDFAYDKTDITNFIHIKLKHSLQCENFSKYYEKCENLKSENEKDDEFINFTFDEISKIDKEHILTLLFFPNELTNWVSSEELLKIYLSFNDFRSVEKYIGKQNLVAVMKQYLDISSLNYSVELVTNLLQRNFELLDDTDIQLKILETIPSVFPVQTISELLLKVLIKYQEKKEESNLRKCLLKNQISISDELSRNFDSQG
modifications: BODIPY-labelled lysines (BODIPY-Lys-tRNA in the translation)
Regarding B3, in the experiment with Vps11 (S. cerevisiae) [3], the binding entry was “binds”.
